For 153 variants, enrichment ratio results are on record in a collection of fitness landscapes (doi:10.1126/science.1257360).

The list shows a part of the results.

The labels stand for the following.
B1: PhoQ; a variant is named by its letters at X, in order, P23837 (parent)
chain: MKKLLRLFFPLSLRVRFLLATAAVVLVLSLAYGMVALIGYSVSFDKTTFRLLRGESNLFYTLAKWENNKLHVELPENIDKQSPTMTLIYDENGQLLWAQRDVPWLMKMIQPDWLKSNGFHEIEADVNDTSLLLSGDHSIQQQLQEVREDDDDAEMTHSVAVNVYPATSRMPKLTIVVVDTIPVELKSSYMVWSWFIYVLSANLLLVIPLLWVAAWWSLRPIEALAKEVRELEEHNRELLNPATTRELTSLVRNLNRLLKSERERYDKYRTTLTDLTHSLKTPLXXLQXXLRSLRSEKMSVSDAEPVMLEQISRISQQIGYYLHRASMRGGTLLSRELHPVAPLLDNLTSALNKVYQRKGVNISLDISPEISFVGEQNDFVEVMGNVLDNACKYCLEFVEISARQTDEHLYIVVEDDGPGIPLSKREVIFDRGQRVDTLRPGQGVGLAVAREITEQYEGKIVAGESMLGGARMEVIFGRQHSAPKDE

In this assay the parent is B1. The assay can be described thus: enrichment ratio after two sorts for PhoP signalling (ratio (wild type AVST 3.29)); higher = more functional. The settings on record: with PhoP (E. coli).
Take VETG: the enrichment ratio was no more than 0.25. The value for RYYA was no more than 0.25; that for FSHR was no more than 0.25.

In the case of MKRR, the enrichment ratio is no more than 0.25. For the variant MCPG, the enrichment ratio was no more than 0.25. The value for ITMK was no more than 0.25.

As to FWIW, the enrichment ratio is no more than 0.25. For ACLR the value was 8.18. For TQQC the value was 3.39; for YPRP, no more than 0.25; for QRTP, no more than 0.25. For DLLR the value was no more than 0.25; for MRGI, no more than 0.25; for KTSH, no more than 0.25. On to LCYF, for which the enrichment ratio is no more than 0.25. The value for LSNP was no more than 0.25; that for TQCL was 12.5. For MIWH the value was 6.22; for LAAA, no more than 0.25. For FCVD the value was no more than 0.25. For the variant NWLE, the enrichment ratio was no more than 0.25.

Consider LIDP, for which the enrichment ratio was no more than 0.25.

In the case of WNTP, the enrichment ratio was no more than 0.25. Take NTET: the enrichment ratio is no more than 0.25.

On to YWYA, for which the enrichment ratio is no more than 0.25. The value for HCLI was 0.803.

Consider KSFW, for which the enrichment ratio is no more than 0.25. The value for DCLC was no more than 0.25. The value for GVPY was no more than 0.25; that for MLLE was no more than 0.25; that for ILAG was no more than 0.25. On to YCKY, for which the enrichment ratio is no more than 0.25.

AHRG: the enrichment ratio was no more than 0.25. The value for ITKV was no more than 0.25; that for TPDP was no more than 0.25; that for ISVD was no more than 0.25.

In the case of IMGA, the enrichment ratio is no more than 0.25. Regarding TVWQ, the enrichment ratio was found to be 2.86. With NNVH, the enrichment ratio was no more than 0.25. On to QADT, for which the enrichment ratio was no more than 0.25. Turning to QQFT, the enrichment ratio was 2.46. The value for YQDG was no more than 0.25. The value for KQFA was no more than 0.25. The value for YNAE was no more than 0.25. With QQVE, the enrichment ratio is no more than 0.25. Regarding KAPW, the enrichment ratio is no more than 0.25. For VNLK the value was no more than 0.25.

Turning to LDST, the enrichment ratio is no more than 0.25. For SNPR the value was no more than 0.25; for MFMC, no more than 0.25. Turning to SPPF, the enrichment ratio is no more than 0.25. The value for MPKQ was no more than 0.25; that for LKML was no more than 0.25. For YYYK the value was no more than 0.25; for IERY, no more than 0.25. The value for GDCS was 1.33.

For SYMS, the enrichment ratio was no more than 0.25. As for QMQQ, the enrichment ratio is no more than 0.25. The value for HILP was no more than 0.25; that for IVNS was no more than 0.25; that for NPDM was no more than 0.25. With VRVV, the enrichment ratio was no more than 0.25.

As for APAH, the enrichment ratio was no more than 0.25.

TESY: the enrichment ratio is 23.2.

As for RLNP, the enrichment ratio is no more than 0.25. The value for ANNV was 4.18; that for IFFE was no more than 0.25. For MDPQ the value was no more than 0.25; for SKIW, no more than 0.25. The value for YDKR was no more than 0.25; that for PLHQ was no more than 0.25. For the variant DQCH, the enrichment ratio is no more than 0.25. For the variant QWPS, the enrichment ratio was no more than 0.25.

On to TRCP, for which the enrichment ratio was no more than 0.25. As to MLKF, the enrichment ratio was no more than 0.25. For AWDY the value was no more than 0.25. With KGGQ, the enrichment ratio was no more than 0.25.

For the variant SHQH, the enrichment ratio is no more than 0.25. Regarding SYSE, the enrichment ratio was no more than 0.25. With DMIY, the enrichment ratio is no more than 0.25. The value for DWVN was no more than 0.25; that for LRED was no more than 0.25. In the case of QHNY, the enrichment ratio is 27.5.

On to LCKK, for which the enrichment ratio was no more than 0.25. For LWEQ the value was no more than 0.25.

Take IAIQ: the enrichment ratio is no more than 0.25. The value for DNEW was no more than 0.25; that for DEPY was no more than 0.25. The value for IQMI was no more than 0.25. The value for YWVF was no more than 0.25. Take HDAF: the enrichment ratio was no more than 0.25.

CLWQ: the enrichment ratio is no more than 0.25. On to SNAW, for which the enrichment ratio was determined as 0.572. FFES: the enrichment ratio is no more than 0.25. The value for DVYA was no more than 0.25; that for KETM was no more than 0.25; that for QGNV was no more than 0.25. The value for TKIP was no more than 0.25; that for IKNM was no more than 0.25; that for PVDT was no more than 0.25. On to SWCV, for which the enrichment ratio worked out at 0.578.

Turning to KDLW, the enrichment ratio was no more than 0.25.

Consider NNWE, for which the enrichment ratio was no more than 0.25.

As to HRRC, the enrichment ratio was no more than 0.25.

With KNNH, the enrichment ratio is no more than 0.25.

Regarding QEAR, the enrichment ratio was no more than 0.25. The value for QDHC was no more than 0.25; that for HKRE was no more than 0.25; that for ITAR was no more than 0.25.

In the case of NLMN, the enrichment ratio is no more than 0.25. For QWDI, the enrichment ratio is no more than 0.25. For INAS, the enrichment ratio was no more than 0.25. The value for KADT was no more than 0.25; that for NARF was no more than 0.25; that for YFRT was no more than 0.25. The value for ENSG was no more than 0.25; that for LINV was no more than 0.25. On to AKKV, for which the enrichment ratio was no more than 0.25. For FHWS the value was no more than 0.25; for RVEN, no more than 0.25; for RGVQ, no more than 0.25. For FLFR, the enrichment ratio is no more than 0.25. Take LMVP: the enrichment ratio was no more than 0.25. As to TWHN, the enrichment ratio is no more than 0.25. The value for PRPP was no more than 0.25; that for ILMQ was no more than 0.25.

Regarding GGVE, the enrichment ratio was no more than 0.25. For HYQK the value was no more than 0.25; for DVSH, no more than 0.25; for EELE, no more than 0.25. For PGHW the value was no more than 0.25; for KPSR, no more than 0.25. For VHPR the value was no more than 0.25. As to EYCD, the enrichment ratio is no more than 0.25. For RAYI the value was no more than 0.25; for FTSA, no more than 0.25; for RPRF, no more than 0.25.

In the case of EERA, the enrichment ratio is no more than 0.25. The value for LVFW was no more than 0.25. The value for FYLC was no more than 0.25; that for RMVA was no more than 0.25; that for QVPG was no more than 0.25. For DSYS the value was no more than 0.25; for CYTN, no more than 0.25. With RAVQ, the enrichment ratio is no more than 0.25.

On to QCIP, for which the enrichment ratio was no more than 0.25.

As to NMWL, the enrichment ratio is no more than 0.25.

Turning to WLNP, the enrichment ratio was no more than 0.25. The value for YYVP was no more than 0.25.

Regarding DCPG, the enrichment ratio is no more than 0.25.

For the variant SEWS, the enrichment ratio was 2.54. For HMRE the value was no more than 0.25. For SEKM, the enrichment ratio was no more than 0.25.
